Data taken from PubChem BioAssay AID624418 (National Center for Advancing Translational Sciences (NCATS), 2012).
Screen size: about 410,000 compounds; about 530 (0.13%) were called active. The shares of active, inactive and inconclusive entries below differ from those in the screen. The call rests on the fitted dose curve; in most records, active means well fitted inhibition curve with a large enough effect; inconclusive means small, poorly fitted or top-dose-only effect, or another doubt; inactive means no such curve, though single readings can be large or run the other way. A potency beside an inconclusive call is a rough fit, not a confirmed value.

Assay: qHTS of GLP-1 Receptor Inverse Agonists: Cytotox Screen
Details: HEK293 cAMP-luciferase reporter cells, luminescence, 24 h; activity change, negative = inhibition: at 38.3 µM (top of the series) unless noted
Summary of the method: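 Quantitative HTS format, 1536 wells, 200 cells/uL seeded. Compounds: 23 nL, 24 h, 37 °C. Detection: luciferase reagent, luminescence at 12 min RT; decreased signal taken as cytotoxic.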
On the % scale 0 is the no-effect control and ±100 the full control effect; potency means the concentration at half of the fitted maximal effect.

Compound	activity change, negative = inhibition	Potency
CC1CCCC/C1=N/Nc1ccc([N+](=O)[O-])cc1[N+](=O)[O-] (stereo not given)	inactive: 6.94%	
N#CCCn1cc(/C=N/NC(N)=S)c(-c2ccccc2)n1		inconclusive: 11.2 µM [inhibitor, partial curve]
COc1cccc(NC(=O)c2ccc(NCCCN3CCC(C)CC3)c([N+](=O)[O-])c2)c1		inconclusive: 7.94 µM [inhibitor, partial curve, poor fit]
COc1cccc(CNCc2cc(OC)cc(OC)c2)c1	inactive: -5.49%	
O=C(Oc1c(Br)cc(C(=S)N2CCOCC2)cc1Br)c1ccc(Cl)cc1		inconclusive: 5.01 µM [inhibitor, partial curve, poor fit]
COc1ccc(CCCC(=O)NCc2ccccc2)cc1C		inconclusive: 5.62 µM [inhibitor, partial curve]
O=C(O)[C@H]1CCCC[C@H]1C(=O)Nc1ccc(S(=O)(=O)N2CCCCC2)cc1		inconclusive: 28.2 µM [inhibitor, single point]
COc1ccc(Cn2ccc3nc(C)c(C(=O)NCc4ccc(F)cc4)cc3c2=O)cc1	inactive: -7.15%	
CCOC(=O)c1ccc(NC(=O)CCc2nc(-c3ccc(C)cc3)no2)cc1		inconclusive: 2.24 µM [inhibitor, partial curve, poor fit]
CCOc1ccc(N2C(=O)CS/C2=C(\C(Cl)=C(Cl)Cl)[N+](=O)[O-])cc1		inconclusive: 12.6 µM [inhibitor, partial curve, poor fit]
O=C(Nc1sc2c(c1C(=O)NCC1CCCO1)CCC2)c1cc(=O)c2ccccc2o1 (stereo not given)	inactive: -14.1%	
CN(C)CCC1Sc2ccccc2Oc2ccccc21 (stereo not given)		inconclusive: 28.2 µM [inhibitor, single point]
O=C1/C(=C/c2ccccc2[N+](=O)[O-])COc2ccccc21		inconclusive: 10 µM [inhibitor, single point]
COC(=O)c1ccccc1NC(=O)Cn1c(-c2nonc2N)nc2ccccc21		inconclusive: 0.794 µM [inhibitor, full curve, poor fit]
Cc1c(C(=O)N(C)C)sc(NC(=O)c2cc([N+](=O)[O-])cc([N+](=O)[O-])c2)c1C#N		inconclusive: 28.2 µM [inhibitor, single point]
Cc1nn(-c2ccccc2)c(C)c1/C=N/NC(=O)c1cc(-c2ccccc2)n[nH]1		inconclusive: 0.891 µM [inhibitor, full curve, poor fit]
COCCNc1nc(NCc2ccc(NC(C)=O)cc2)c2sc(-c3ccccc3)cc2n1		inconclusive: 28.2 µM [inhibitor, single point]
Cc1cc(C)nc(SSc2nc(C)cc(C)n2)n1		inconclusive: 4.47 µM [inhibitor, full curve]
COc1cc(C(=O)N/N=C(\C)c2ccccn2)cc(OC)c1OC		inconclusive: 0.562 µM [inhibitor, full curve, poor fit]
COc1ccc2nc(C)cc(N/N=C/c3cccc(OC)c3O)c2c1		inconclusive: 15.8 µM [inhibitor, single point]
CC1=C(c2ccc(C)cc2)S(=O)(=O)NC1=NCCCN1CCN(c2ccc(F)cc2)CC1	inactive: -11.2%	
Cc1ccc(NC(=O)CSc2nc(-c3ccco3)cc(C(F)(F)F)n2)cc1		inconclusive: 1.58 µM [inhibitor, full curve, poor fit]

Compound	activity change, negative = inhibition	Potency
CCCOc1ccc(C2C3=C(Nc4nc(N)[nH]c(=O)c42)c2ccccc2C3=O)cc1 (stereo not given)		inconclusive: 28.2 µM [inhibitor, single point]
c1cc2c(cc1C1=NNC(=NC3CC3)SC1)OCCO2		inconclusive: 28.2 µM [inhibitor, single point]
CCCCn1nnnc1C(c1cc2ccccc2o1)N1CCN(c2cc(C)nc3ccccc23)CC1 (stereo not given)		inconclusive: 10 µM [inhibitor, single point]
COc1cc(CO)cc(Br)c1OCC(=O)O	inactive: 4.73%	
O=C(NC(=S)Nc1cccc(S(=O)(=O)NC2=NCCC2)c1)c1cc(-c2ccco2)nc2ccccc12		inconclusive: 8.91 µM [inhibitor, partial curve]
O=c1c2ccc(F)cc2sn1-c1ccccc1		inconclusive: 10 µM [inhibitor, partial curve, poor fit]
COc1cc(/C=C/C(=O)OCC(=O)Nc2ccc3[nH]c(=O)[nH]c3c2)ccc1OC(F)F	inactive: -31.8%	
Cc1ccc(/C=N/NC(=O)Cc2ccc(Cl)cc2)c(O)c1		inconclusive: 3.55 µM [inhibitor, single point]
NCC/C=C1/c2ccccc2CSc2ccccc21		inconclusive: 28.2 µM [inhibitor, single point]
COc1ccc2c(c1)CCc1c(C(=O)Nc3ccc(OC)c(OC)c3)noc1-2	inactive: 2.75%	
CCN(CC)c1ccc(/C=N/Nc2nc(C)cc(=O)[nH]2)c(O)c1		inconclusive: 0.316 µM [inhibitor, full curve, poor fit]
Cc1ccc(C2CC2c2n[nH]c(=S)n2-c2cccc(C)c2)cc1 (stereo not given)		inconclusive: 10 µM [inhibitor, single point]
CN(C(=O)c1ccc(N2CCCCC2)c([N+](=O)[O-])c1)C1(C)CCS(=O)(=O)C1 (stereo not given)		inconclusive: 12.6 µM [inhibitor, single point]
N=C1/C(=C\c2coc3ccc(O)cc3c2=O)C(=O)N=C2SC=CN12	inactive: -6.69%	
Cc1c2cnn(CC(=O)NCCCN3CC(C)CC(C)C3)c(=O)c2c(C)n1Cc1ccccc1Cl (stereo not given)		inconclusive: 22.4 µM [inhibitor, single point]
CCCOc1ccc2ccccc2c1/C=N/n1c(C)nnc1-n1nc(C)cc1C		inconclusive: 3.55 µM [inhibitor, partial curve, poor fit]
CCOC(=O)c1sc(S(C)(=O)=O)c2c1CCc1conc1-2		inconclusive: 0.501 µM [inhibitor, full curve, poor fit]
CC(C)NC(=O)CSCc1cccc(Br)c1		inconclusive: 0.501 µM [inhibitor, full curve, poor fit]
Cn1c(=O)c(C(=O)NCCO)c(O)c2ccccc21		inconclusive: 31.6 µM [inhibitor, single point]
Cn1cccc1Cc1nnc(SCC(=O)N2CCc3ccccc32)n1-c1ccc(F)cc1		inconclusive: 22.4 µM [inhibitor, single point]
CSCC[C@H](N)C(=O)N1CCC(C(=O)N[C@H](C)C(=O)Nc2ccc(C(C)C)cc2)CC1		inconclusive: 4.47 µM [inhibitor, partial curve, poor fit]
Cc1ccccc1C(=O)Nc1cccc(NC(=O)c2ccc(-c3ccc(Br)cc3)o2)c1		inconclusive: 28.2 µM [inhibitor, single point]

Compound	activity change, negative = inhibition	Potency
C=CCNc1nc(-c2ccccc2)c(C(=O)OCC)cc1C#N		inconclusive: 1.78 µM [inhibitor, full curve]
Cc1ccc(CS(=O)(=O)Cc2ccc(C(=O)NCc3ccccn3)o2)cc1		inconclusive: 14.1 µM [inhibitor, single point]
COc1cc(C(C[N+](=O)[O-])c2c(C)cc3ccccn23)ccc1O (stereo not given)		inconclusive: 3.16 µM [inhibitor, partial curve, poor fit]
CCOC(=O)c1c(C)[nH]c(CCC(=O)NCc2ccc(N(C)C)cc2)c1C	inactive: 11.2%	
C=C1C(=O)OC2C1C(OC(=O)C(C)=CC)CC(=C)C1C(O)C3OC3(C)C21O (stereo not given)		inconclusive: 14.1 µM [inhibitor, single point]
CCOc1cccc(C(=O)NC(=S)NCc2cccnc2)c1	inactive: 2.37%	
CN1/C(=C\C(=O)Nc2cccc(Cl)c2)C(C)(C)c2ccccc21		inconclusive: 8.91 µM [inhibitor, partial curve]
O=C(CCS(=O)(=O)c1ccccc1)NNC(=O)CSc1ccccc1F	inconclusive: -30.4% [inhibitor]	
CCOc1ccc(C2C(C#N)=C(N)SC(N)=C2C#N)c(OCC)c1	inactive: 2.36%	
CCS(=O)(=O)N1CCc2cc(C(=O)Nc3ccc(Br)cc3F)ccc21	inactive: -21.2%	
O=C(COC(=O)c1cc([N+](=O)[O-])ccc1N1CCOCC1)Nc1ccc(Cl)cc1		inconclusive: 28.2 µM [inhibitor, single point]
CCn1c(SCC(=O)N/N=C/c2ccc(C)s2)nc2ccccc21		inconclusive: 7.08 µM [inhibitor, partial curve, poor fit]
COc1ccc(N(Cc2cccs2)C(=O)c2ccco2)cc1	inactive: -21.8%	
OCC1(Cc2ccccc2)CCN(C2CCN(c3ccccc3F)CC2)CC1		inconclusive: 28.2 µM [inhibitor, single point]
COC(=O)c1[nH]c2cc(OC)ccc2c1NC(=O)CN1CCN(c2cccc(C)c2)C(C)C1 (stereo not given)		inconclusive: 31.6 µM [inhibitor, single point]
CCOc1ccc(OCC)c(NC(=O)CN2CCN(c3cc(C)ccc3C)CC2)c1		inconclusive: 10 µM [inhibitor, partial curve]
Cc1cccc(CS(=O)(=O)c2nnc([C@H](Cc3ccccc3)NC(=O)OC(C)(C)C)o2)c1		inconclusive: 10 µM [inhibitor, partial curve, poor fit]
COc1ccc(OC)c(S(=O)(=O)NCC(c2ccc(N(C)C)cc2)N2CCOCC2)c1 (stereo not given)	inactive: -2.83%	
COC(=O)c1cc2oc3ccccc3c2n1Cc1ccc(C)cc1	inactive: 4.15%	
O=C(N/N=C/c1ccco1)c1ccc2nc[nH]c2c1		inconclusive: 28.2 µM [inhibitor, single point]
Cc1ccc(Cn2c(SCC(=O)NCc3ccccc3)nc3ccsc3c2=O)cc1	inactive: 2.03%	
